Sequences with one replicate were seen in a single cluster, so their values are uncertain.
The sequences below were run on ATP (assay: switch fluorescence ratio, 500 uM ATP over buffer (Cy3 cluster intensity, sum of 5 cycles each) (fold (ratio)); higher = stronger signal-on switching upon ATP binding; sequences stand for … in TCGTCGGCAGCGTCAGATGTGTATAAGAGACAGTTTTTTTTTTTTTTTTTTTTTTTTT…TC). Conditions: aptamer strand: ATP DNA aptamer (quencher-CACCTGGGGGAGTATTGCGGAGGAAGG + anchor), 100 nM annealed; ATP concentration: 500 uM; one replicate.
Method in brief: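 Cy3-labelled switching-strand clusters on a modified Illumina MiSeq flow-cell were annealed to 100 nM quencher-labelled ATP aptamer, imaged in selection buffer, then imaged after 15 min with 500 uM ATP at 22 °C. Five buffer/ATP cycles ran, with NaOH stripping and re-annealing between them. The fluorescence ratio is summed target-cycle over summed buffer-cycle Cy3 intensity per cluster, averaged per switch-domain sequence. Clusters outside 100-1000 RFU were excluded.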
TCAATGTATT gave a switch fluorescence ratio of 1.01.
Work on CCGTATGTGA yielded a switch fluorescence ratio of 1.19.
AGCGGGTCCA was tested, and the switch fluorescence ratio was 1.06.
CAGGTTTCAT was tested, and the switch fluorescence ratio was 1.05.
For GCTGGTTTGA, the switch fluorescence ratio was 0.976.
CGATGATTTA showed a switch fluorescence ratio of 0.971.
Sequence TTACATAATG has a switch fluorescence ratio of 1.05.
For ATTCCGGTGT, the switch fluorescence ratio was 1.02.
CAGGCTCCCG showed a switch fluorescence ratio of 1.01.
AGAGGATAGT was tested, and the switch fluorescence ratio was 1.03.
With CCGCTTAGGG the switch fluorescence ratio was 1.23.
With AGGGGCGTAT the switch fluorescence ratio was 1.03.
With CGTCTCTAAA the switch fluorescence ratio was 1.02.
CTCGGAACTG was tested, and the switch fluorescence ratio was 1.02.
For TGGTTCTATG, the switch fluorescence ratio was 0.988.
With TCGGCCGGAG the switch fluorescence ratio was 1.01.
TATATGTCAC gave a switch fluorescence ratio of 1.05.
Sequence GGGGTCATG has a switch fluorescence ratio of 0.982.
TTAGCTTATA showed a switch fluorescence ratio of 1.03.
TATCATGGAC was tested, and the switch fluorescence ratio was 1.04.
In the case of CTTAGCTTT, the switch fluorescence ratio is reported as 3.78.
Sequence TTCGCTTAG has a switch fluorescence ratio of 1.06.
In the case of GGCGTGACTG, the switch fluorescence ratio is reported as 0.999.
Work on TGACGATA yielded a switch fluorescence ratio of 1.04.
CCGGGGGGC showed a switch fluorescence ratio of 1.12.
In the case of TCCGGCGGAG, the switch fluorescence ratio is reported as 1.01.
ATGTGCACCG showed a switch fluorescence ratio of 0.982.
For TACGCTATGC, the switch fluorescence ratio was 4.35.
In the case of CAAAGACGAA, the switch fluorescence ratio is reported as 1.03.
ACTGGGAATG was tested, and the switch fluorescence ratio was 0.995.
AAAACGGGGC gave a switch fluorescence ratio of 1.05.
Work on CATAACATGA yielded a switch fluorescence ratio of 0.959.
TAAAGCCAAG gave a switch fluorescence ratio of 0.991.
With GAGCGCGCAT the switch fluorescence ratio was 1.04.
GACGGAGGTT showed a switch fluorescence ratio of 0.966.
With TCGCAACCGC the switch fluorescence ratio was 1.7.
With CTAGCTTTAA the switch fluorescence ratio was 1.04.
In the case of CAATGTGTCA, the switch fluorescence ratio is reported as 0.99.
AAGGCCCCGG was tested, and the switch fluorescence ratio was 1.02.
AATTAAAAA gave a switch fluorescence ratio of 0.999.
For TGTGTGAGAG, the switch fluorescence ratio was 0.97.
GCCATGCTTC was tested, and the switch fluorescence ratio was 0.995.
Sequence CCGCGGTGGT has a switch fluorescence ratio of 1.14.
Work on GCTGGCCTGT yielded a switch fluorescence ratio of 0.973.
TTTACTGTG gave a switch fluorescence ratio of 0.994.
For GCTAGATAGG, the switch fluorescence ratio was 1.03.
Sequence CTTGGTACT has a switch fluorescence ratio of 1.07.
Work on TATAGGTAGG yielded a switch fluorescence ratio of 0.956.
Work on TCAAAGCTGG yielded a switch fluorescence ratio of 1.03.
With GATGTGTGTG the switch fluorescence ratio was 0.977.
TTGACCAATT was tested, and the switch fluorescence ratio was 1.03.
GTAAAAGC gave a switch fluorescence ratio of 1.01.
Work on CTATTGGGTC yielded a switch fluorescence ratio of 0.997.
Work on TAATTGGCTG yielded a switch fluorescence ratio of 1.03.
ATTTCACGAC showed a switch fluorescence ratio of 1.04.
TGTTTTTGAC gave a switch fluorescence ratio of 0.974.
Work on CAAACTGAAA yielded a switch fluorescence ratio of 0.998.
Sequence ACGGCGCGAT has a switch fluorescence ratio of 1.34.
GAACTCATTG showed a switch fluorescence ratio of 1.
Sequence TTCCTTGAAT has a switch fluorescence ratio of 1.02.
In the case of GAATTAGGGT, the switch fluorescence ratio is reported as 1.03.
ACGCATAACA was tested, and the switch fluorescence ratio was 1.51.
ATTACAGTG gave a switch fluorescence ratio of 1.
For TTGTGTTTGA, the switch fluorescence ratio was 0.964.
For AGGCACGAGC, the switch fluorescence ratio was 0.995.
AAAAAGTAGC was tested, and the switch fluorescence ratio was 1.04.
CAGTCACTCC gave a switch fluorescence ratio of 1.15.
TCGGGAGCGA gave a switch fluorescence ratio of 1.26.
ACCATGTGCA showed a switch fluorescence ratio of 1.06.
Work on TCGGAGAGGT yielded a switch fluorescence ratio of 0.978.
Sequence TTTTGTCTCA has a switch fluorescence ratio of 0.996.
For TGCATAAAAG, the switch fluorescence ratio was 0.988.
Work on ATTTCTGCGT yielded a switch fluorescence ratio of 0.994.
GGGGAGAATT showed a switch fluorescence ratio of 1.01.
In the case of CTGAATGCA, the switch fluorescence ratio is reported as 1.15.
Sequence GGGTGAAGCG has a switch fluorescence ratio of 0.983.
For GTGAACGAAT, the switch fluorescence ratio was 1.
CTATAATGAC showed a switch fluorescence ratio of 1.05.
For ATTAGTAAAT, the switch fluorescence ratio was 0.999.
GAATCGTGCC gave a switch fluorescence ratio of 0.999.
AGACAGGCGT gave a switch fluorescence ratio of 0.944.
ACGGAATGAA showed a switch fluorescence ratio of 1.1.
Work on TATGGTGGC yielded a switch fluorescence ratio of 0.983.
ATCGATTATT showed a switch fluorescence ratio of 1.01.
TGGAAGGCTA was tested, and the switch fluorescence ratio was 1.
TTCGGGGT showed a switch fluorescence ratio of 0.999.
GCGACCCTTC showed a switch fluorescence ratio of 1.17.
In the case of CTGGGCACGG, the switch fluorescence ratio is reported as 0.996.
Sequence GAGCGCCGTC has a switch fluorescence ratio of 1.04.
ACCATTTTCC showed a switch fluorescence ratio of 1.24.
Sequence TAGTTCCGT has a switch fluorescence ratio of 1.01.
Work on CATTGTAACT yielded a switch fluorescence ratio of 1.04.
In the case of GTTCTCGCCG, the switch fluorescence ratio is reported as 0.987.
With CGCTACTCAG the switch fluorescence ratio was 2.18.
ACCGGGGTCA gave a switch fluorescence ratio of 1.
With GGGGACTCAG the switch fluorescence ratio was 1.04.
ATATTATTCG was tested, and the switch fluorescence ratio was 0.972.
ACGTGCCTGC was tested, and the switch fluorescence ratio was 1.02.
In the case of CAGGCCTCAC, the switch fluorescence ratio is reported as 1.09.
CTCAAACGGC gave a switch fluorescence ratio of 1.22.
With ATTATGAG the switch fluorescence ratio was 0.983.
In the case of ATAGACAGGG, the switch fluorescence ratio is reported as 0.994.
In the case of ATATCAAAGT, the switch fluorescence ratio is reported as 0.982.
CCATACACTC showed a switch fluorescence ratio of 1.05.
GTGTATGTCA was tested, and the switch fluorescence ratio was 0.992.
For TTTGACTTGG, the switch fluorescence ratio was 1.05.
TTCAGGC was tested, and the switch fluorescence ratio was 1.02.
In the case of TAGTTAAGAA, the switch fluorescence ratio is reported as 0.981.
In the case of CGGACGCAGG, the switch fluorescence ratio is reported as 1.97.
Work on GAGCCGGGTC yielded a switch fluorescence ratio of 0.972.
With GTCTGTCGTA the switch fluorescence ratio was 0.935.
ATATACGCCC gave a switch fluorescence ratio of 1.34.
Work on AAATACATGC yielded a switch fluorescence ratio of 1.03.
Sequence CCCCTTGTCG has a switch fluorescence ratio of 1.01.
Work on CTTTTAGTCT yielded a switch fluorescence ratio of 1.01.
Sequence GGATCTCCTG has a switch fluorescence ratio of 0.987.
TCGAGTTATG was tested, and the switch fluorescence ratio was 1.01.
CGTGAGACCG was tested, and the switch fluorescence ratio was 1.05.
For CGAAGTTG, the switch fluorescence ratio was 1.02.
CAAGGAAGTA showed a switch fluorescence ratio of 0.996.
Work on ACATACCGGT yielded a switch fluorescence ratio of 1.26.
GAAACCACGT was tested, and the switch fluorescence ratio was 1.1.
For ACTGTTGGT, the switch fluorescence ratio was 0.979.
ACCCATAGAA gave a switch fluorescence ratio of 1.01.
Sequence TTCCTAATAG has a switch fluorescence ratio of 1.09.
Work on AGTGCTGCTC yielded a switch fluorescence ratio of 1.02.
Sequence GGGGAGATCG has a switch fluorescence ratio of 1.1.
Sequence TTCTTCCGTC has a switch fluorescence ratio of 1.37.
Work on ATGTTCTCTT yielded a switch fluorescence ratio of 0.98.
GGCATGAGGC showed a switch fluorescence ratio of 0.973.
AAAAGCGATA gave a switch fluorescence ratio of 1.1.
For GGTACAAAGG, the switch fluorescence ratio was 0.996.
For CATAGATG, the switch fluorescence ratio was 0.985.
For AGCACGCACG, the switch fluorescence ratio was 1.76.
For ATTTTCGCTA, the switch fluorescence ratio was 1.05.
TGTTCGTA was tested, and the switch fluorescence ratio was 0.965.
In the case of TAGTATGACT, the switch fluorescence ratio is reported as 0.951.
Sequence TGGTTCCCCA has a switch fluorescence ratio of 0.996.
Work on GTCGCTGTTT yielded a switch fluorescence ratio of 0.976.
GAGGTGTTAA showed a switch fluorescence ratio of 0.988.
Work on AAGGGATAGA yielded a switch fluorescence ratio of 0.996.
Work on TCCATCGTGG yielded a switch fluorescence ratio of 1.01.
With CTCCTATATT the switch fluorescence ratio was 1.03.
For CAATATGAT, the switch fluorescence ratio was 1.03.
GATCGTCGCA was tested, and the switch fluorescence ratio was 1.05.
For CCTTAATCCT, the switch fluorescence ratio was 1.14.
GCTTGGTTCG gave a switch fluorescence ratio of 0.987.
Work on TGCTTGGTCT yielded a switch fluorescence ratio of 0.987.
ACAGGCGCC was tested, and the switch fluorescence ratio was 1.
Work on GAGCACACGG yielded a switch fluorescence ratio of 1.05.
Work on GTCTGAGAGG yielded a switch fluorescence ratio of 0.98.
In the case of TAGTCTTGGA, the switch fluorescence ratio is reported as 1.02.
TATCGCACTC showed a switch fluorescence ratio of 1.43.
With GCATTGCCAC the switch fluorescence ratio was 0.98.
AAAAAAGGCG showed a switch fluorescence ratio of 0.993.
CCACTAGCCG was tested, and the switch fluorescence ratio was 1.06.
In the case of CTAGTCTGTA, the switch fluorescence ratio is reported as 1.01.
For CGAAGTGACC, the switch fluorescence ratio was 1.13.

Reference: the supplement of paper PMC10126150
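Also: ATP exposure 15 min at 22 °C before imaging.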
